Test results from patent publication US20240190987A1, “Engineered EpCam Binding Antibodies” (TigaTX, priority 2021, published 2024).

How the values were obtained:
[1] = Differential scanning fluorimetry (DSF) melting temperature; type: physicochemical
Protocol: DSF was performed on a LC480 Lightcycler Instrument II (Roche). Purified recombinant protein was diluted to 5 μM in DSF buffer (PBS, pH 7.4, Sypro Orange 5×) with small molecule (10 μM VTX) or vehicle (0.05% DMSO) and then heated with a temperature gradient (0.01° C./s) from 25 to 95° C. Data were continuously acquired at ˜465 nm (excitation) and ˜580 nm (emission). Data was analyzed to generate first derivative curves in which the curve maximum was reported as the melting temperature of the protein.

[2] = BLI binding of LS2A variants to biotin-IDV; conditions: LS2A R4 variants (Table 21)
Protocol: In R1 of engineering, point mutations were made to remove an oxidation site, deamidation sites, or a hydrophobic residue. In addition, several murine back mutations were tested to improve humanization. Binding kinetics were measured to biotin-IDV and LS2B Ab0637.
Bio-layer interferometry (BLI) data were measured using an Octet RED384 (ForteBio) instrument. Antigens of interest were immobilized on an AHC biosensor and loaded until a 0.4-0.6-nm signal was achieved. Purified antibodies were used as the analyte premixed with 10 μM Indinavir or 0.05% DMSO vehicle. PBSTB (PBS, pH 7.4, 0.05% Tween-20, 0.2% BSA) was used for all buffers for BLI. Data were analyzed using ForteBio Octet analysis software and kinetic parameters were determined using a 1:1 monovalent binding model.

Kd [2]: 16 nM
B3: Ab1098: LS2A indinavir binding domain, FIGS. 5A-5E (antibody)
heavy: QVQLVQSGAEVKKPGASVKVSCKASGYTFTSYLMHWVRQHPGQGLEWMGMIHPNSGGTNYAQKFQGRVTMTRDTSTSTVYMELSSLRSEDTAVYYCAMGDYVSRDYWGQGTLVTVSSGGGGSGGGGSGGGGSEIVLTQSPGTLSLSPGERATLSCRASSSVSSSYLHWYQQKPGQAPRLLIYSTSSRATGIPDRFSGSGSGTDFTLTISRLEPEDFAVYYCQQYSGYQFTFGQGTKLEIKGGGGS[human IgG1 Fc with changes left out]
light: DIQMTQSPSSLSASVGDRVTITCSASSSVSSGNFHWYQQKPGKAPKLLIYRTSNLASGVPSRFSGSGSGTDYTLTISSLQPEDFATYYCQQWSGYPYTFGQGTKVEIKRTVAAPSVFIFPPSDEQLKSGTASVVCLLNNFYPREAKVQWKVDNALQSGNSQESVTEQDSKDSTYSLSSTLTLSKADYEKHKVYACEVTHQGLSSPVTKSFNRGEC
modifications: knob heavy chain missing; REGION 1..471: note = Ab1098 HC Hole scFv-Fc; REGION 1..215: note = Ab1098 LC Knob

Kd [2]: 15 nM
B5: Ab1096: LS2A indinavir binding domain, FIGS. 5A-5E (antibody)
heavy: QVQLVQSGAEVKKPGASVKVSCKASGYTFTSYFMHWVRQHPGQGLEWMGMIHPNSGGTNYAQKFQGRVTMTRDTSTSTVYMELSSLRSEDTAVYYCAMGDYVSRDYWGQGTLVTVSSGGGGSGGGGSGGGGSEIVLTQSPGTLSLSPGERATLSCRASSSVSSSYLHWYQQKPGQAPRLLIYSTSSRATGIPDRFSGSGSGTDFTLTISRLEPEDFAVYYCQQYSGYQFTFGQGTKLEIKGGGGS[human IgG1 Fc with changes left out]
light: B3 light
modifications: knob heavy chain missing; REGION 1..471: note = Ab1096 HC Hole scFv-Fc; REGION 1..215: note = Ab1096 LC Knob
TM (° C.) ([1]; LS2A R4 variants (Table 21)): 54.8 °C

The remaining lines, values behind:

B1: Ab0823: anti-EpCAM binding domain, FIGS. 8A-8C (antibody)
heavy: EVKLEESGGGLVQPGGSMKLSCVASGFTFSNYWMNWVRQSPEKGLEWVAQIRVKSENFATHYAESVKGRFTISRDDSKSSVYLQMNNLRAEDTGIYYCTLYDGFSWGQGTTLTVSSASTKGPSVFPLAPSSKSTSGGTAALGCLVKDYFPEPVTVSWNSGALTSGVHTFPAVLQSSGLYSLSSVVTVPSSSLGTQTYICNVNHKPSNTKVDKKV[human IgG1 Fc with changes left out]
modifications: light chain not cited; REGION 1..446: note = Ab0823 HC
TM (° C.) ([1]; anti-EpCAM M37 clones (Table 25)): 68.5 °C

B2: Ab1134: anti-CD3 binding domain, FIGS. 7A-7C; CC protein, FIG. 9B (antibody)
heavy 1: EVQLVESGGGLVQPGGSLRLSCAASGFTFSTYAMNWVRQAPGKGLEWVARIRSKYNNYATYYADSVKGRFTISRDDSKSILYLQMNSLRAEDTAVYYCVRHGNFGNSYVSWFAYWGQGTLVTVSSGGGGSGGGGSGGGGSDIQVTQSPSSLSASVGDRVTITCRSSTGAVTTSNYANWVQQKPGKAFKGLIGGTNKLAPGVPSRFSGSLSGDDATLTISSLQPEDFATYYCALWYSNLWVFGQGTKLEIKGGGGS[human IgG1 Fc with changes left out]
heavy 2: EVQLVESGGGLVQPGGSLRLSCAASGFDFSSYSIHWVRQAPGKGLEWVAAISPYYGSTYYADSVKGRFTISADTSKNTAYLQMNSLRAEDTAVYYCARYYEYYKYDLYAGSLGFDYWGQGTLVTVSSASTKGPSVFPLAPSSKSTSGGTAALGCLVKDYFPEPVTVSWNSGALTSGVHTFPAVLQSSGLYSLSSVVTVPSSSLGTQTYICNVNHKPSNTKVDKKVEPKSCDKTHTGGGGSGGEVQLVESGGGLVQPGGSLRLSCAASGFDFSSYSIHWVRQAPGKGLEWVAAISPYYGSTYYADSVKGRFTISADTSKNTAYLQMNSLRAEDTAVYYCARYYEYYKYDLYAGSLGFDYWGQGTLVTVSSASTKGPSVFPLAPSSKSTSGGTAALGCLVKDYFPEPVTVSWNSGALTSGVHTFPAVLQSSGLYSLSSVVTVPSSSLGTQTYICNVNHKPSNTKVDKKV[human IgG1 Fc with changes left out]
light: DIQMTQSPSSLSASVGDRVTITCRASQSVSSAVAWYQQKPGKAPKLLIYSASSLYSGVPSRFSGSRSGTDFTLTISSLQPEDFATYYCQQGGYSLITFGQGTKVEIKRTVAAPSVFIFPPSDSQLKSGTASVVCLLNNFYPREAKVQWKVDNALQSGNSQESVTEQDSKDSTYSLSSTLTLSKADYEKHKVYACEVTHQGLSSPVTKSFNRGEC
modifications: REGION 1..481: note = Ab1134 Knob HC; REGION 1..698: note = Ab1134 Hole HC; REGION 1..214: note = Ab1134 Hole LC
TM (° C.) ([1]; v68-5 R2 variants (Table 24)): 63.7 °C

B4: Ab1110: LS2A indinavir binding domain, FIGS. 5A-5E (antibody)
heavy: EVQLVESGGGLVQPGGSLRLSCAASGFTFSNYWMNWVRQAPGKGLEWVAQIRVKSENFATHYADSVKGRFTISRDDSKSTVYLQMNSLRAEDTAVYYCTLYDGFSWGQGTLVTVSSASTKGPSVFPLAPSSKSTSGGTAALGCLVKDYFPEPVTVSWNSGALTSGVHTFPAVLQSSGLYSLSSVVTVPSSSLGTQTYICNVNHKPSNTKVDKKV[human IgG1 Fc with changes left out]
scFv: QVQLVQSGAEVKKPGASVKVSCKASGYTFTSYWMHWVRQHPGQGLEWMGMIHPNSGGANYAQKFQGRVTMTRDTSTSTVYMELSSLRSEDTAVYYCAMGDYVSRDYWGQGTLVTVSSGGGGSGGGGSGGGGSEIVLTQSPGTLSLSPGERATLSCRASSSVSSSYLHWYQQKPGQAPRLLIYSTSSRATGIPDRFSGSGSGTDFTLTISRLEPEDFAVYYCQQYSGYQFTFGQGTKLEIKGGGGS[human IgG1 Fc with changes left out]
modifications: light chain entry not cited; REGION 1..445: note = Ab1110 HC Knob; REGION 1..471: note = Ab1110 HC Hole scFv-Fc
Kd [2]: 4.9 nM

Each block holds one molecule with its values, some of them ahead of it.
